Patent US20220339156A1, “COMPOSITIONS AND METHODS FOR TREATMENT OF DISORDERS ASSOCIATED WITH CLEC16A DYSFUNCTION OR LOSS” (THE CHILDREN'S HOSPITAL OF PHILADELPHIA, priority 2019, published 2022)

Experiments:
JAK = conditions: cited from earlier work
SOCS1 = assay: RT-PCR for SOCS1 expression in gWAT of control, KO and tofacitinib-treated KO mice; type: in vivo; conditions: treated KO vs Clec16a KO mice
From the text: (§1) To address the underlying mechanism behind the tofacitinib effect, we first performed RT-PCR for SOCS1 and SOCS3 expression and immunoblot analysis on gWAT isolated from controls, Clec16a KO and Clec16a KO tofacitinib-treated mice. We evaluated p-HSL, p-STAT1, p-STAT3, SOCS-1, AMPK, mTOR, P62 and LC3I/II and ER stress (FIG. 10 C-F).

Clec16a^ΔUBC KO mice = assay: Neuronal tissues and neuronal phenotype of tofacitinib-treated Clec16a KO mice; type: in vivo
From the text: This may be due to the negative feedback loop associated with JAK/STAT/SOC1 signaling.

SOCS3 = assay: RT-PCR for SOCS3 expression in gWAT of control, KO and tofacitinib-treated KO mice; type: in vivo; conditions: between groups
From the text: as §1

[1] = test system: p-HSL, p-STAT1, p-STAT3, AMPK, ACC, mTOR, P62, LC3I/II, ER stress proteins, COX-2, p-IkBα; assay: Immunoblot analysis on gWAT of control, Clec16a KO and tofacitinib-treated KO mice; type: in vivo
From the text: as §1
Another downstream effector of AMPK is mTOR signaling that regulates a plethora of functions, including autophagy. […] We also evaluated for lipolytic and ER stress rescue in tofacitinib-treated KO mice (FIGS. 10-E, F). […] Increased cytokines/chemokine levels reflect upon the inflammatory mechanism utilized during the development, progression and pathogenesis of various autoimmune/inflammatory diseases.

cytokines and chemokines = assay: Plasma cytokine/chemokine profiling with Mouse Cytokine Array panel; type: in vivo; conditions: treated KO mice vs Clec16a KO alone
From the text: FIGS. 10A-10I. […] SOCS1 (FIG. 10G) and SOCS3 (FIG. 10H) expression by RT-PCR in control, KO±tofacitinib mice. […] The representative graph is quantification of cytokines and chemokine from plasma of Control (Vehicle), KO and KO+Tofacitinib inhibitor treated mice using the Mouse Cytokine Array panel.
To gain insight in the inflammatory mechanism involved in the development, progression and pathogenesis of various autoimmune diseases, we profiled plasma from control, KO and U0126-treated KO mice for cytokines and chemokine using Mouse Cytokine Array panel.

[2] = test system: UBC-Cre-Clec16aloxP KO mice; assay: Treatment of inducible Clec16a KO mice: fat/weight loss, lipodystrophic phenotype, survival

SMILES: CC[C@@](C)(Nc1ccnc(-c2c[nH]c3ncccc23)n1)C(=O)NCC(F)(F)F [Decemotiniba]
- JAK selectivity (JAK; as listed, no test described): JAK3

SMILES: O=C(Nc1nc2cccc(-c3ccc(CN4CCS(=O)(=O)CC4)cc3)n2n1)C1CC1 [Filgotinib]
- JAK selectivity (JAK): JAK1

SMILES: N#CCC1(n2cc(-c3ncnc4[nH]ccc34)cn2)CN(C2CCN(C(=O)c3ccnc(C(F)(F)F)c3F)CC2)C1 [Itacitinib (INCB039110), Itacitinib]
- JAK selectivity (JAK; as listed, no test described): JAK1

SMILES: CCCS(=O)(=O)N[C@H]1C[C@@H](N(C)c2ncnc3[nH]ccc23)C1 [PF-04965842]
- JAK selectivity (JAK; as listed, no test described): JAK1

SMILES: COc1nsc(NC(=O)N2C[C@H]3C[C@H](N(C)c4ncnc5[nH]ccc45)C[C@H]3C2)n1 [SHR0302]
- JAK selectivity (JAK; as listed, no test described): JAK1 > JAK2, JAK3

SMILES: CC1(C)CN(C(=O)c2ccc(-c3cccc4nc(NC(=O)C5CC5)nn34)cc2)C1 [Solcitinibb]
- JAK selectivity (JAK; as listed, no test described): JAK1

SMILES: C[C@@H]1CCN(C(=O)CC#N)C[C@@H]1N(C)c1ncnc2[nH]ccc12 [tofacitinib]
- SOCS1 mRNA expression (SOCS1): significant reversal
- autophagy in neuronal tissues (Clec16a^ΔUBC KO mice; treated Clec16a KO mice): rescued
- neuronal phenotype (Clec16a^ΔUBC KO mice; treated Clec16a KO mice): did not alter
- STAT proteins in neuronal tissues (Clec16a^ΔUBC KO mice; treated vs untreated Clec16a^ΔUBC KO mice): no significant change
- SOCS3 expression (SOCS3): no significant difference
- p-STAT1 ([1]; adipose tissue immunoblot): downregulating both p-STAT1 and p-STAT3 to control levels
- p-STAT3 ([1]; adipose tissue immunoblot): downregulating both p-STAT1 and p-STAT3 to control levels
- autophagy defect (P62 accumulation) ([1]; gWAT): correcting the autophagy defect
- ER stress proteins (GRP78, ATF6, p-IRE1α, XBP1 and CHOP) ([1]; gWAT immunoblot): significant downregulation
- expression of COX-2 ([1]; gWAT immunoblot): reduced
- expression of p-IkBα ([1]; gWAT immunoblot): reduced
- p-AMPK ([1]; gWAT immunoblot): significantly reduced
- p-HSL ([1]; gWAT immunoblot): significant downregulation
- phosphorylation of ACC ([1]; gWAT immunoblot): promoted
- phosphorylation of mTOR ([1]; gWAT immunoblot): reversal
- upregulated inflammatory cytokines and chemokines (cytokines and chemokines): near complete reversal
- inflammatory phenotype [2]: attenuated
- lipodystrophic phenotype ([2]; listed as Tofacitinib): partially rescues
- survival ([2]; listed as Tofacitinib): improves survival
- fat and weight loss ([2]; treated vs untreated KO): significantly attenuated

Where two headings read alike, the source gives them in different places.
